# Laboratory results published in PMC4336329 (PLoS ONE, 2015).
# The campaign covered roughly 310,000 compounds. About 14,000 (4.5%) showed an effect of 50% or more. The effect is printed as a negative number. The list shows a part of the results.
# Target: human ether-à-go-go-related gene (hERG) potassium channel (human, UniProt Q12809)
# Assay: primary screen, population patch clamp on CHO cells stably expressing hERG
# 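Further: peak tail current of the secondary pulse compared with the same well before compound.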
# Sequence of human ether-à-go-go-related gene (hERG) potassium channel (Q12809 whole entry, looked up): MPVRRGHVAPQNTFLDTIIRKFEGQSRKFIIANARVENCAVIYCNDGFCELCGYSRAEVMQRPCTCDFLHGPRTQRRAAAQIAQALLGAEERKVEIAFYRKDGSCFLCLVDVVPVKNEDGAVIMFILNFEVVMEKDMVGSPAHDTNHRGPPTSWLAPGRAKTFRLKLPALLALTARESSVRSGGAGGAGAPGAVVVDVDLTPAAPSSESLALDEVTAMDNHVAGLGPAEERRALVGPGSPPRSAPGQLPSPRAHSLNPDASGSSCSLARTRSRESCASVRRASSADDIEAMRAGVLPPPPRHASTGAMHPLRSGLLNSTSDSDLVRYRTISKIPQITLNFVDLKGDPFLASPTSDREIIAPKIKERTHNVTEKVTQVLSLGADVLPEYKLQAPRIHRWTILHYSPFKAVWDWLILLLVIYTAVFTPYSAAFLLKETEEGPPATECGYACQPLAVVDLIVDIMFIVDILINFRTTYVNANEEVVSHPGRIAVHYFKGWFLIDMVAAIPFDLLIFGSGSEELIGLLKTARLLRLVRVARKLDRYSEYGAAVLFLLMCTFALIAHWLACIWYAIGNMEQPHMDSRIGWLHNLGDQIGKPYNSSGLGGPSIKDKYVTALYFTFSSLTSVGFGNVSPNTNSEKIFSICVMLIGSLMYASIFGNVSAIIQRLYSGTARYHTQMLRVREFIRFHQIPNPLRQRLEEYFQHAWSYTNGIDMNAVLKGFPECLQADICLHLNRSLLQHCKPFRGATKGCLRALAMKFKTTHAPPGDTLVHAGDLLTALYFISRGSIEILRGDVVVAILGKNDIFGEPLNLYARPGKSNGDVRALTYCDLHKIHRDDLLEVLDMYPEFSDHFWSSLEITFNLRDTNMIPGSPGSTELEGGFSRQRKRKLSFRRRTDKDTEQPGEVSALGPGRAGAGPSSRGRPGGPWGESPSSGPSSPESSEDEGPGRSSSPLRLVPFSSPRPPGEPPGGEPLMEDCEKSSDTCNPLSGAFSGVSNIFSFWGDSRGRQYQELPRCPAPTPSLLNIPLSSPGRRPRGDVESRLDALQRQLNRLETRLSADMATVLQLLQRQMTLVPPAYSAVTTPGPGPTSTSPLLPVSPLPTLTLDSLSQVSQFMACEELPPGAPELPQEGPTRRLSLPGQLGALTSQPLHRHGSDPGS
row,SMILES,"hERG current change (%, negative = inhibition) at 10uM [%]"
1,COc1ccc(N=C(NN)c2ccc3ccccc3n2)cc1,8.02
2,O=C(CN1C(=O)c2cccc3cccc(c23)C1=O)NCCCO,9.79
3,COc1cccc(C(=O)NC(C)c2cccc3ccccc23)c1OC (stereo not drawn),-10.4
4,COc1ccc(Nc2nnc(-c3ccc(C)cc3)c3ccccc23)cc1C(=O)N1CCCCC1,-33.7
5,CCN1CCN(c2ccc(S(=O)(=O)N3CCCCC3)cc2NC(=O)c2ccc(OC(F)F)cc2)CC1,-57.2
6,CCCCn1c(N)c(N(CC(C)C)C(=O)CCCc2nc3ccccc3s2)c(=O)[nH]c1=O,3.63
7,Cc1ccc(S(=O)(=O)NC(C)(C)CN2CCCCC2)cc1,3.77
8,O=C(CN1CCN(c2cccc(C(F)(F)F)c2)CC1)NCc1ccccc1,-17.1
9,CC1=NCCc2c1[nH]c1ccccc21,-22.7
10,CCCC(=O)c1c[nH]c(C(=O)NCc2cccnc2)c1,20.9
11,O=C(O)C1CC(=O)N(Cc2ccc(F)cc2)C1 (stereo not drawn),1.36
12,Cc1cc(C)c2nc(C(F)(F)F)nc(NCCCN3CCOCC3)c2c1,-10.1
13,Cc1ccccc1S(=O)(=O)N(CC(O)CN1C(=O)NC(C)(C)C1=O)c1ccccc1 (stereo not drawn),1.47
14,O=[N+]([O-])c1ccc(Cl)cc1CNc1ccc(F)c(F)c1,0.95
15,Cc1ccccc1OCC(=O)OCn1nnc2ccccc2c1=O,19.6
16,COc1ccccc1Nc1nn2c(=O)c3ccc(C(=O)N4CCC(C)CC4)cc3nc2s1,1.58
17,COc1ccc(-c2ccc(-c3nnn(CC(=O)N4CCOCC4)n3)cc2)cc1,-4.7
18,CC(=O)NCC(c1cccs1)S(=O)(=O)c1ccc(F)cc1 (stereo not drawn),23.6
19,N#C/C(=N\Nc1cccc(F)c1)C(=N)N1CCCCCC1,-17.6

row,SMILES,"hERG current change (%, negative = inhibition) at 10uM [%]"
1,Cc1ccc(C(=O)NCCCNC(=O)c2ccc(C)nc2)cc1,10.5
2,COC(=O)c1c(C)[nH]c(C)c1C(=O)c1ccccc1Cc1ccccc1,-9
3,c1ccc(CNCCc2c[nH]c3ccccc23)cc1,-13.3
4,O=C(Nc1ncc(Cc2ccc(C(F)(F)F)cc2)s1)c1ccc(-c2cccc([N+](=O)[O-])c2)o1,20.2
5,O=C(CSc1nnc(Cc2cc(=O)[nH]c(=O)[nH]2)n1-c1ccc(Cl)cc1)NC1CCCC1,10.7
6,CN(CC(=O)Nc1ccc(OC(F)(F)F)cc1)C(=O)C1CCC1,-1.21
7,CCc1nnc(NC(=O)CSc2nnc(-c3ccoc3C)n2-c2cccc(C)c2)s1,-58.3
8,COc1ccc2nc(SCc3cccnc3)c(C#N)cc2c1,-1.26
9,COc1ccc(-c2nnc(SCC(=O)NC(C)c3ccccc3)o2)cc1OC (stereo not drawn),-6.11
10,COc1ccc(S(=O)(=O)NCc2c(-c3ccccc3)noc2C)c(OC)c1,-16.8
11,Cl.OCCN(CCO)CC(O)CN1c2ccccc2Sc2ccccc21 (stereo not drawn),-12.9
12,O=C(Nc1ccc2c(c1)OCCO2)C1CCN(S(=O)(=O)c2ccc(Br)s2)CC1,3.85
13,COC(=O)C1=C(C)NC2=C(C(=O)CC(C)(C)C2)C1c1cnn(C)c1C (stereo not drawn),15.6
14,O=C(CSc1nc2ccccc2c(=O)n1CC1CCCO1)N1CCN(c2ccccc2)CC1 (stereo not drawn),-73.4
15,O=C(O)c1cc2c(s1)-c1ccccc1OC2,9.73
16,O=C(CSc1ccccc1)NCCSCc1ccccc1,-3.89
17,O=C(c1cn(-c2ccc(Cl)c(Cl)c2)nn1)C1CC1,11.6
18,O=S(=O)(CCN(CCS(=O)(=O)C(F)(F)F)CC1CCCO1)C(F)(F)F (stereo not drawn),-6.91
19,COc1ccc(CC(=O)Nc2cc3oc4ccccc4c3cc2OC)cc1,-7.9

row,SMILES,"hERG current change (%, negative = inhibition) at 10uM [%]"
1,N#CC(=C=[N-])C1=C(C#N)C(c2ccccc2F)C([n+]2ccccc2)C(O)(C2CC2)N1 (stereo not drawn),14.3
2,O=c1oc2ccccc2n1CCc1ccccc1,-14.1
3,COc1ccc(S(=O)(=O)c2c[nH]c(=S)[nH]c2=O)cc1Cl,21.9
4,FCCCOc1ccc(-c2nccc(-c3ccccn3)n2)cc1,7.26
5,CCOc1ccccc1NC(=O)CN1C(=O)NC(Cc2c[nH]c3ccccc23)C1=O (stereo not drawn),-16.6
6,C#CCOc1c(Cl)cc(/C=N/O)cc1OC,4.04
7,Cc1nc(N)nc(Nc2ccc(C#N)cc2)c1Br,-4
8,Cc1ccc(NC(=O)/C(=C\c2ccc3c(c2)OCO3)NC(=O)c2ccco2)cc1,1.13
9,CCCC(C(=O)NC1CCCC1)N(CC1CCCO1)C(=O)c1snc(C(N)=O)c1N (stereo not drawn),-36.4
10,O=C(CCNC(=O)c1ccc(Cl)cc1)NC1CCCc2ccccc21 (stereo not drawn),2.28
11,Cc1cccc(NC(=O)C(=O)NCCCN2CCOCC2)c1,21.3
12,Cc1cccnc1CCNC(=O)c1ccc(OC2CCN(Cc3ccccn3)CC2)cc1,-16.6
13,COc1ccc(-c2c(C#N)c(N)nc3c2CCc2ccccc2-3)cc1OC,7.25
14,CCOC(=O)c1csc(N)n1.Cl,8.31
15,O=C(CCN1C(=O)/C(=C\c2cccc(Br)c2)SC1=S)N1CCOCC1,8.36
16,CCN(CC)S(=O)(=O)c1csc(C(=O)OCC(=O)c2ccccc2)c1,-2.37
17,COCCNC(=O)c1cc(Br)ccc1Cl,-6.51
18,Cc1sc2nc(C(C)Nc3ccccc3N3CCOCC3)[nH]c(=O)c2c1C (stereo not drawn),11.1
19,CN1CCN(c2ccc(NC(=O)c3ccc(-c4ccc(Br)cc4)o3)cc2)CC1,0.645
